Data published in PMC10516600.
Results are given in words; binding and its absence hold for the method and conditions named. In cells and extracts the contact can be indirect. Some entries that bind do so weakly or less than the wild type. For some of these results: Tags and fused reporters may be left off the sequences shown.

Sequences of proteins named here, by UniProt entry; tags and fusion partners are left off. A change or cut given only in a name is not applied to a line headed by its entry.
UniProt P62491: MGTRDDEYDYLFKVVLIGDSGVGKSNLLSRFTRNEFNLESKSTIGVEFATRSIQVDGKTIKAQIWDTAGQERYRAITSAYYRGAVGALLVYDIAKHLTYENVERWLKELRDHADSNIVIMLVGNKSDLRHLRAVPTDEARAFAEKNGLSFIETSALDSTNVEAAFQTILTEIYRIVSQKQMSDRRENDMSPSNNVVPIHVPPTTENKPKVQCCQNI
UniProt O15078: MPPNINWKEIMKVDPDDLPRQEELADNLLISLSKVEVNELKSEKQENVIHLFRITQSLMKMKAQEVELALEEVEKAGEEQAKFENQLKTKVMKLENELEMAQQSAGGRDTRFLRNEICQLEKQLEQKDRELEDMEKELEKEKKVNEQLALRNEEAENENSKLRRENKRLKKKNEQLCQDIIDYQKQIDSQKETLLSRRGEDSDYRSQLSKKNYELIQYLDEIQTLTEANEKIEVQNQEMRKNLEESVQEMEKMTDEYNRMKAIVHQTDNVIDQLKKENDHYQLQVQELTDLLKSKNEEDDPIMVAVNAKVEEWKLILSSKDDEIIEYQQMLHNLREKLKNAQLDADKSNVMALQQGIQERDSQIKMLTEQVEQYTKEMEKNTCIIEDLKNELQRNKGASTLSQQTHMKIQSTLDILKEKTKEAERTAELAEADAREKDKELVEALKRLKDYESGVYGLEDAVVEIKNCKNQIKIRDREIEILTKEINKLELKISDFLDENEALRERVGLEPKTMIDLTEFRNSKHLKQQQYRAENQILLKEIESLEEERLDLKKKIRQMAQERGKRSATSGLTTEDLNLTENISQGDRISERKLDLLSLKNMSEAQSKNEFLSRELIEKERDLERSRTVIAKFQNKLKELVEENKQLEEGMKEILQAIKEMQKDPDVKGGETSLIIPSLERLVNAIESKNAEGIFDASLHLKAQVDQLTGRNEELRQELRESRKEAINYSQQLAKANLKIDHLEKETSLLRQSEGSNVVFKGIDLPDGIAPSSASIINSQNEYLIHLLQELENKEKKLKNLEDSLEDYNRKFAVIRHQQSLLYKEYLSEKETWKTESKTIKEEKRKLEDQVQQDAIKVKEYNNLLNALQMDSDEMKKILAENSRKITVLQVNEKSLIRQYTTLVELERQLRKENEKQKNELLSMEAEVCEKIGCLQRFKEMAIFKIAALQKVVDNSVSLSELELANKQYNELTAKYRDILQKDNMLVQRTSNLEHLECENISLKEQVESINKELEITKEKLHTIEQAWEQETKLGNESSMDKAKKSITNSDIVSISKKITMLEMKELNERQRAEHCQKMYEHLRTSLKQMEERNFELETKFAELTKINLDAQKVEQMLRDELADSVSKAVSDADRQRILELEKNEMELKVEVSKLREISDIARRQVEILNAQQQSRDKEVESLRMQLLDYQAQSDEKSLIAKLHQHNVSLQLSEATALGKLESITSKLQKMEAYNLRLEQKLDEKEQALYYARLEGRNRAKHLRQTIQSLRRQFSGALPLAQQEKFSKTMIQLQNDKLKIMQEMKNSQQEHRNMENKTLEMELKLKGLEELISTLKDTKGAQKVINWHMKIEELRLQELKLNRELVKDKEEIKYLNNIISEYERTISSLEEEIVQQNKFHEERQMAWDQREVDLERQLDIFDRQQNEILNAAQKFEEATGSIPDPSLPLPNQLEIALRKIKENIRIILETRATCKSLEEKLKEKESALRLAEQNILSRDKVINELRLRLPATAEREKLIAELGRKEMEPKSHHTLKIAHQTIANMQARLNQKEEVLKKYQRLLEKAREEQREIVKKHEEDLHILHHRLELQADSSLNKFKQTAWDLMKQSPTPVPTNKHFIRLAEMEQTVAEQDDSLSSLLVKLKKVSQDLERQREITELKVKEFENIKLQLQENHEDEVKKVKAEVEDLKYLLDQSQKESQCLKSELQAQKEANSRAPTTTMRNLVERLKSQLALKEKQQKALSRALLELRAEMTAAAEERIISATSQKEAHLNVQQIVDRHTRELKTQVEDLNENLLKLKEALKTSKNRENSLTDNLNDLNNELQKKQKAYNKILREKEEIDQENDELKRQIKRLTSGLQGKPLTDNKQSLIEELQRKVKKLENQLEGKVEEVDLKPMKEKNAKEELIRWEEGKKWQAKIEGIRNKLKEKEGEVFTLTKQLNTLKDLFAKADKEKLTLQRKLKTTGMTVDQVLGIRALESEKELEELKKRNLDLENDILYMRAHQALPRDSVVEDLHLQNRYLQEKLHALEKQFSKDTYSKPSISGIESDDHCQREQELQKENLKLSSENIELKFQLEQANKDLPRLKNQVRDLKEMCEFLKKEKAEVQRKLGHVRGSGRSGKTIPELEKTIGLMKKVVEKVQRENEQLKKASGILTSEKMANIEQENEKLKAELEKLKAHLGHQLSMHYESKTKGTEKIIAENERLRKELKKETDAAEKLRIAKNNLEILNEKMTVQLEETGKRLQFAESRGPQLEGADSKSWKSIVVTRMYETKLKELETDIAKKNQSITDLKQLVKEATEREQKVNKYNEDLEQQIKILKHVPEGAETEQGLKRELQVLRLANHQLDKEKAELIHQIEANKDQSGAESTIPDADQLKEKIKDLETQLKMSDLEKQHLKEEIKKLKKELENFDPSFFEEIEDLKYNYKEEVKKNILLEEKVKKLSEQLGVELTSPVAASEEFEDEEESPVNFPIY
UniProt Q96CW5: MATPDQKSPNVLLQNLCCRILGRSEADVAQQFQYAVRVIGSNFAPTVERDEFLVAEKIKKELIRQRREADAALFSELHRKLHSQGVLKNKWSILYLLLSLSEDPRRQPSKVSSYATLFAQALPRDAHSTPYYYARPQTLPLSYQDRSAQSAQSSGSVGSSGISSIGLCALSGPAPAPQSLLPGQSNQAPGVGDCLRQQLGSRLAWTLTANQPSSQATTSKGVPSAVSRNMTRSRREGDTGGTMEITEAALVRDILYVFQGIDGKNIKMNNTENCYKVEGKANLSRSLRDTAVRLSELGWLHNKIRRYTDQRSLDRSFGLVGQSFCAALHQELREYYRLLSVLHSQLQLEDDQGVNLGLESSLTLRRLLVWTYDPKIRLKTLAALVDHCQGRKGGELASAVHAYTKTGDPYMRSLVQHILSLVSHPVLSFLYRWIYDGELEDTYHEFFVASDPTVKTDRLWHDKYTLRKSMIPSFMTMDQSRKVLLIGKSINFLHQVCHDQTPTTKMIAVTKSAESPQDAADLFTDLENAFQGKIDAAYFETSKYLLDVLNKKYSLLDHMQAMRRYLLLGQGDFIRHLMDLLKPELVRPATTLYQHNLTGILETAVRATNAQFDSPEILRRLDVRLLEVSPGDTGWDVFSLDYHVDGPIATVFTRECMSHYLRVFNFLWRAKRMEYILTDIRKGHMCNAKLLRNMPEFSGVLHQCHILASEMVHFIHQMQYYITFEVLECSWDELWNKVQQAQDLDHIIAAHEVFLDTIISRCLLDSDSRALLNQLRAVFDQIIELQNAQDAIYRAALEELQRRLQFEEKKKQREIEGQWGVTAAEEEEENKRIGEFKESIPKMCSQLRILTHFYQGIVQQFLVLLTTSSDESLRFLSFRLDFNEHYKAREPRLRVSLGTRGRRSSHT

How the values were obtained:
[1] = target: T1, exogenous CRB3b (CRB3-GFP) stably expressed in MCF10A cells (human) (UniProt Q9BUF7); experiment: co-IP; MCF10A cells expressing exogenous CRB3b (CRB3-GFP); lysate in NP40 buffer, Dynabeads protein G kit, immunoblot; baits exogenous CRB3b or Rab11
T1 sequence: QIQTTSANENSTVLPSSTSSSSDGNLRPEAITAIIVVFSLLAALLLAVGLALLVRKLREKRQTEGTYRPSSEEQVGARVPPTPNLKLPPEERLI

[2] = target: T2, CRB3 (endogenous, MCF10A cells) (human (endogenous in MCF10A)) (UniProt Q9BUF7); experiment: co-IP; endogenous proteins in MCF10A lysate (NP40 buffer), Dynabeads protein G kit, immunoblot; baits CRB3, Rab11 or GCP6; control shRNA and CRB3 knockdown cells
T2 sequence: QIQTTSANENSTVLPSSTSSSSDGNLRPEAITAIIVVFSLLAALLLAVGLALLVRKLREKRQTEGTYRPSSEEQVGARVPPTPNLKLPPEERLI

Flag-Rab11a (wild type) = Flag-Rab11a (wild type) (UniProt P62491); experiment: co-IP; Flag antibody co-IP from HEK293 cells cotransfected for 48 hr with CRB3b-GFP constructs and Flag-Rab11a variants; immunoblot with GFP and Flag antibodies
Flag-Rab11a[Q70L] = Flag-Rab11a[Q70L] (UniProt P62491); experiment: as above
Flag-Rab11a[S20V] = Flag-Rab11a[S20V] (UniProt P62491); experiment: as above
Flag-Rab11a[S25N] = Flag-Rab11a[S25N] (UniProt P62491); experiment: as above

Molecule: CEP290 (endogenous, MCF10A cells) (from UniProt O15078 1-2479)
- binding [1]: binds

Molecule: GCP3 (endogenous, MCF10A cells) (from UniProt Q96CW5 1-907)
- binding [2]: no binding

B1: full-length CRB3b-GFP (1–120), expressed in HEK293 cells (protein, UniProt Q9BUF7 27-120)
chain: QIQTTSANENSTVLPSSTSSSSDGNLRPEAITAIIVVFSLLAALLLAVGLALLVRKLREKRQTEGTYRPSSEEQVGARVPPTPNLKLPPEERLI
- binding (Flag-Rab11a (wild type)): binds
- binding (Flag-Rab11a[Q70L]): binds
- binding (Flag-Rab11a[S20V]): binds
- binding (Flag-Rab11a[S25N]): binds weakly

B2: CRB3 (1–116) GFP fusion (domain or fragment, UniProt Q9BUF7 27-116)
chain: QIQTTSANENSTVLPSSTSSSSDGNLRPEAITAIIVVFSLLAALLLAVGLALLVRKLREKRQTEGTYRPSSEEQVGARVPPTPNLKLPPE
- binding (Flag-Rab11a (wild type)): binds

B3: CRB3 (1–83) GFP fusion (domain or fragment, UniProt Q9BUF7 27-83)
chain: QIQTTSANENSTVLPSSTSSSSDGNLRPEAITAIIVVFSLLAALLLAVGLALLVRKL
- binding (Flag-Rab11a (wild type)): binds

Molecule: QIQTTSANENSTVLPSSTSSSSDGNLRPEAIT (domain or fragment, UniProt Q9BUF7 27-58) [CRB3 (1–58) GFP fusion]
- binding (Flag-Rab11a (wild type)): binds

Molecule: MANPGLGLLLALGLPFLLARWGRAWG (domain or fragment, UniProt Q9BUF7 1-26) [CRB3 (1–26) GFP fusion]
- binding (Flag-Rab11a (wild type)): no binding
